We go through 56 compounds from PMC4336329 (PLoS ONE, 2015).

The whole screen tested about 310,000 compounds, of which about 14,000 (4.5%) showed an effect of 50% or more. Effects have a minus sign here. The list shows a part of the results.
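Note: peak tail current of the secondary pulse compared with the same well before compound.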

In this test the target is human ether-à-go-go-related gene (hERG) potassium channel (human, UniProt Q12809). As to the kind of experiment: primary screen, population patch clamp on CHO cells stably expressing hERG.
Sequence of human ether-à-go-go-related gene (hERG) potassium channel (Q12809 whole entry, looked up): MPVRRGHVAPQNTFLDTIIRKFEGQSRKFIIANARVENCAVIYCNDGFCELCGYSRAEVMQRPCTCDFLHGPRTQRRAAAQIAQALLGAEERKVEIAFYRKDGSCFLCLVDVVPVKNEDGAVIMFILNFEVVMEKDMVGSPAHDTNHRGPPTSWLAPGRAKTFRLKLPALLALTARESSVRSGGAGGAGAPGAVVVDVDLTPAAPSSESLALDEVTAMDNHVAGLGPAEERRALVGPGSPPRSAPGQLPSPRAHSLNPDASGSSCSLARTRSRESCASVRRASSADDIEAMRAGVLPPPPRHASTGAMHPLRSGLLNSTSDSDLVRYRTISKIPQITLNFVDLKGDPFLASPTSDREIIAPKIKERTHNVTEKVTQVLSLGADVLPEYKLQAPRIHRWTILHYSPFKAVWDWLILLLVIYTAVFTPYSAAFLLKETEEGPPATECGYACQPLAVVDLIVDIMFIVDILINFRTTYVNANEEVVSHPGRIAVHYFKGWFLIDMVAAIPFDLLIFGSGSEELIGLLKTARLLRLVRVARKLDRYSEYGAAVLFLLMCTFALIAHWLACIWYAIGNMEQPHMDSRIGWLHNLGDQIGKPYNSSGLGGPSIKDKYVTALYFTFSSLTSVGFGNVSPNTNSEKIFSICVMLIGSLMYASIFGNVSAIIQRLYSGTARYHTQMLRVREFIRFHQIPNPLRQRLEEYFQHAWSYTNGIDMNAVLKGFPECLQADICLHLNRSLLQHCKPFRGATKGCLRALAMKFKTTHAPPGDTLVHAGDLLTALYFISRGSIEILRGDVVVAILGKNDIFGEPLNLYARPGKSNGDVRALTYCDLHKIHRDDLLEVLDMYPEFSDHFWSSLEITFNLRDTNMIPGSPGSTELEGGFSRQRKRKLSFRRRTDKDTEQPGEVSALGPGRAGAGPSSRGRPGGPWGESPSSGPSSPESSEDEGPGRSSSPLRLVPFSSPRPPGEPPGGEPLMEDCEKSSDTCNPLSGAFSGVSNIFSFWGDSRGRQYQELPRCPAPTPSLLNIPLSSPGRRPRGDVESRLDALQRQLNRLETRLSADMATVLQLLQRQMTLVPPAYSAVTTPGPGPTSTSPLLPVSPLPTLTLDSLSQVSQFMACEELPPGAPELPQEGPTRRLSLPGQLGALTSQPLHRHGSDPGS
Take `Cc1ccc(N(C)C(=O)Oc2ccc(C(=O)c3ccc(Cl)cc3)cc2)cc1`: the “hERG current change (%, negative = inhibition) at 10uM” value was determined as 5.57%.
The result for `COc1cc(OC)nc(Oc2ccc(N)c(C)c2)n1` reads -1.88%.
With `COc1cc(/C=N/N=C2\CC3CCC2(C)C3(C)C)ccc1O` (centres unmarked), the “hERG current change (%, negative = inhibition) at 10uM” value is listed as -17.6%.
The result for `CCCn1c(C)cc(/C=C(\C#N)C(=O)OCC(=O)Nc2cc(OC)c(OC)c(OC)c2)c1C` reads -10.2%; that for `CCOC(=O)CNC(=O)Cn1c(C)cc2ccccc2c1=O`, 18.7%; that for `O=C(CSc1nc(C2CCCCC2)nc2ccccc12)N1CCCC1`, -12.6%.
As to `CC(C)CCN1CCN(Cc2cc3ccccc3[nH]2)CC1CCO` (centres unmarked), the “hERG current change (%, negative = inhibition) at 10uM” value was -22.4%.
Take `Cc1ccc[n+](CC(=O)Nc2c(Cl)cc(Cl)cc2Cl)c1.[Cl-]`: the “hERG current change (%, negative = inhibition) at 10uM” value came out at 11%.
The result for `Cc1ccc2nc(C)n(-c3ccc(F)cc3)c(=O)c2c1` reads 21.3%; that for `C[C@@H]1CCC[C@]2(O[C@H](CCO)C[C@H](O)[C@H]2O)O1`, 5.55%.
The result for `CCOC(=O)CCc1c(C)n[nH]c1C` reads 11.4%; that for `O=C(NCc1ccccc1Cl)c1ccc[nH]1`, -14.4%; that for `Cc1ccc(CN2C3CCCC2CC(NC(=S)NCc2ccccc2)C3)cc1` (centres unmarked), -72.4%.
The same measure for `COc1cc(S(=O)(=O)N2CCC(C(N)=O)CC2)c(C)cc1C`: 14.2%; for `COc1ccc(Br)cc1S(=O)(=O)Nc1ncn[nH]1`: 13.4%; for `CC(=O)NC1=NN(C(C)=O)C(c2ccc(C)cc2)S1` (centres unmarked): 34.1%.
Turning to `CC(C)Cc1nnc(NC(=O)c2cc([N+](=O)[O-])ccc2N2CCOCC2)s1`, the “hERG current change (%, negative = inhibition) at 10uM” value is listed as -51.4%.
For `COc1ccc(NS(=O)(=O)c2cccc(C(=O)NNC(=O)CNC(=O)c3ccc(C)cc3)c2)cc1`, the “hERG current change (%, negative = inhibition) at 10uM” value is listed as -2.64%.
The same measure for `O=C(c1ccccc1Cc1ccccc1)N1CCN(S(=O)(=O)c2ccccc2[N+](=O)[O-])CC1`: -13%; for `OC(c1ccccc1)C(O)c1ccccc1` (centres unmarked): 20.2%.
The result for `Cc1onc(-c2ccccc2Cl)c1C(=O)NC(=S)Nc1ccc(C(C)C)cc1` reads 10.4%; that for `COc1ccc(CCNc2nc(-c3sc(C)nc3C)cs2)cc1OC.O=C(O)C(=O)O`, -28.4%.
The result for `CCOC(=O)C1CCN(C(=O)CSc2n[nH]c(=O)[nH]c2=O)CC1` reads 7.16%; that for `CS(=O)(=O)N(CC(=O)N1CCCC1)Cc1ccc(Cl)cc1`, -4.75%.
Turning to `COc1cccc(NC(=O)CSc2nc3c([nH]c4ccccc43)c(=O)n2C)c1`, the “hERG current change (%, negative = inhibition) at 10uM” value is 16.4%.
The same measure for `CCOC(=O)C1(Cc2ccc(Cl)cc2)CCN(C2CCC2)CC1`: -44.9%; for `CCOCCCn1c(SC(C(=O)Nc2cc(C)ccc2C)c2ccccc2)nnc1-c1ccc(Cl)cc1` (centres unmarked): -4.82%.
The same measure for `CC(C)Oc1ccc(C2CC(=O)N(c3ccc(C(=O)O)cc3)C2=O)cc1` (centres unmarked): 11.8%; for `Cc1nn(C(C)(C)C)c(OC(=O)c2ccc3c(c2)OCO3)c1S(=O)(=O)c1ccccc1`: 2.49%.
The result for `COc1ccc(C(=O)CC(=O)c2ccccc2O)cc1` reads 16.6%.
Turning to `CCc1ccc(C(=O)N2CCN(c3ccc(NC(=O)c4cccnc4)cc3)CC2)cc1`, the “hERG current change (%, negative = inhibition) at 10uM” value is listed as -71.3%.
The same measure for `CC(=O)C1=C(C)OC(N)=C(C#N)C1c1cc2cc(C)c(C)cc2nc1Cl` (centres unmarked): -2.94%; for `Cc1ccc(/C([O-])=C(/C(=S)NCc2ccccc2)[n+]2ccccc2)cc1[N+](=O)[O-]`: 14.4%; for `CCCCNc1nc(Nc2ccc(C)c(Cl)c2)c2cnn(C)c2n1`: 15.3%.
The result for `CCCCCCC/C(C)=N/NC(=O)CC(=O)NCCc1ccccc1` reads -2%; that for `CCCS(=O)(=O)c1nc(S(=O)(=O)c2ccc(C)cc2)c(N2CCC(C)CC2)s1`, -0.508%.
With `CCCc1cc(C(=O)N(C)CC(=O)Nc2ccc(OCC)c(OCC)c2)sc1C`, the “hERG current change (%, negative = inhibition) at 10uM” value was -24.6%.
Consider `CC(C)c1cc(C(F)(F)F)n2nc(C(=O)O)cc2n1`, for which the “hERG current change (%, negative = inhibition) at 10uM” value was -10.6%.
With `Cc1ccc(-n2ncc3c(=O)n(CC#N)cnc32)cc1`, the “hERG current change (%, negative = inhibition) at 10uM” value is on record as -5.68%.
The result for `Cc1ccc(N2CC(c3nc4ccccc4[nH]3)CC2=O)c(C)c1` (centres unmarked) reads -4.29%.
The result for `CCOc1ccccc1N(CC(=O)Nc1ccc(S(=O)(=O)N2CCOCC2)cc1)S(=O)(=O)c1ccc(Cl)cc1` reads -4.59%; that for `CN(C)c1ccc(C(=O)Nc2cccc(S(=O)(=O)N3CCCC3)c2)cc1`, -2.51%; that for `Cc1ccc(NC(=O)/C=C/c2ccc3c(c2)OCO3)cc1S(=O)(=O)N1CCOCC1`, -13%.
The result for `Cc1cc(C)n(S(=O)(=O)c2ccc3oc(=O)ccc3c2)n1` reads -8.4%.
As to `O=C(CCS(=O)(=O)c1ccc(Cl)cc1)Nc1ccc(F)cc1`, the “hERG current change (%, negative = inhibition) at 10uM” value stood at 0.345%.
`COc1ccc(NC(=O)C(c2ccc(C)cc2)N(C)C(=O)Cc2cccs2)cc1` (centres unmarked): the “hERG current change (%, negative = inhibition) at 10uM” value is -11%.
With `O=C1C2C3C=CC(C3)C2C(=O)N1CCC(=O)N1CCc2ccccc21` (centres unmarked), the “hERG current change (%, negative = inhibition) at 10uM” value is -15.3%.
The result for `Cl.NCCNC(=O)c1ncsc1-c1cccc(F)c1` reads 17.4%.
The same measure for `O=C(CCC(=O)Nc1ccc(Br)cc1)N/N=C/c1ccc(F)cc1`: 7.04%; for `Cn1c(=O)c2c(=O)cc(NNC(=O)CC#N)[nH]c2n(C)c1=O`: 16.6%.
The same measure for `CC1=CC(C)C2(COC(=O)Nc3ccccc3)COC(C)C1C2C` (centres unmarked): -3.03%; for `CCc1c(C)nc2ncnn2c1N1CCN(S(=O)(=O)c2ccc(OC)cc2)CC1`: -36%; for `Cc1cc(C)nc(NC(=O)Nc2ccc(F)cc2F)n1`: -3.43%.
`Cc1cccc(N=C2NN=C(c3ccc4c(c3)OCCO4)CS2)c1`: the “hERG current change (%, negative = inhibition) at 10uM” value is given as -3.09%.
The same measure for `Cc1ccc(C(C)C)c(OCCN)c1.Cl`: 7.99%; for `COc1cccc(C(=O)CC(=O)C(=O)Nc2ccc([N+](=O)[O-])cc2C)c1`: 15.7%.
